# Results as given in the supplement of paper PMC7826260.
# Some of the results follow. Viral Rep nickase domains cut single-stranded DNA in vitro (3 µM enzyme, 1 h, 37 °C); shown is the middle of each 90-letter strand. Numbers give uncut DNA relative to the enzyme-free pool, as log2; the lower, the more was cut; hits are not called. The scaling is to total reads; where an enzyme cuts many sequences, the uncut ones exceed 0.
# Tests used:
# Test in all cases: uncleaved DNA left, log2 of reads against the no-enzyme library (log2 ratio); higher = less cleavage (more negative = more Rep cleavage of the k-mer); sequences stand for … in CTCGTCCG…ACCGGAGA
# [1] = test system: T1, Rep nickase domain of Muscovy duck circovirus
# T1 sequence (residues 1-111, tag not shown): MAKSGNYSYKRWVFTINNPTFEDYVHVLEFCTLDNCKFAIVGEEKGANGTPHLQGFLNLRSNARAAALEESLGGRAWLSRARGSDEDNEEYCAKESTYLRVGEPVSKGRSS
# Method: (§1)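 A pool of 90-nt single-stranded DNAs with seven random bases just before the constant AC of the nick site (name = the seven bases) was cut by 3 µM recombinant His6-SUMO-tagged Rep nickase domain (300 nM DNA, 50 mM HEPES pH 8.0, 50 mM NaCl, 1 mM MnCl2, 1 h, 37 °C, three replicates). Uncut DNA was amplified and sequenced.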
# [2] = test system: T2, Rep nickase domain of banana bunchy top virus
# T2 sequence (residues 1-94, tag not shown): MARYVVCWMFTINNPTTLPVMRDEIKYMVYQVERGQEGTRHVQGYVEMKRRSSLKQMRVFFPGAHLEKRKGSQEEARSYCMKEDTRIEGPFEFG
# Method: as §1
# [3] = test system: T3, Rep nickase domain of cabbage leaf curl virus
# T3 sequence (residues 1-116, tag not shown): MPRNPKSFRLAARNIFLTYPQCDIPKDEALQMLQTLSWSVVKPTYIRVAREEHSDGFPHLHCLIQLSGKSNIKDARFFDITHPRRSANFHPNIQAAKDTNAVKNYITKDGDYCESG
# Method: as §1
# [4] = test system: T4, Rep nickase domain of chickpea chlorotic dwarf virus
# T4 sequence (residues 1-124, tag not shown): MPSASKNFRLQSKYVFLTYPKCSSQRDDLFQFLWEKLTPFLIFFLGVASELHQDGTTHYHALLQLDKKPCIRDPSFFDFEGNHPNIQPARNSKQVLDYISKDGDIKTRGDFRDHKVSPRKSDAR
# Method: as §1
# [5] = test system: T5, Rep nickase domain of faba bean necrotic yellows virus
# T5 sequence (residues 1-98, tag not shown): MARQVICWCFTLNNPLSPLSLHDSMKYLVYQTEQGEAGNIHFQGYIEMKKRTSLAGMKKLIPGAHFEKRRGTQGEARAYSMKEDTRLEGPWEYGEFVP
# Method: as §1
# [6] = test system: T6, Rep nickase domain of maize striate mosaic virus
# T6 sequence (residues 1-117, tag not shown): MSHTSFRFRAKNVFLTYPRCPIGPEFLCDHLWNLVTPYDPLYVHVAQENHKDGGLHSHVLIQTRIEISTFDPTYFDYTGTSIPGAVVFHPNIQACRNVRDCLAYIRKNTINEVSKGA
# Method: as §1
# [7] = test system: T7, Rep nickase domain of porcine circovirus 2
# T7 sequence (residues 2-116, tag not shown): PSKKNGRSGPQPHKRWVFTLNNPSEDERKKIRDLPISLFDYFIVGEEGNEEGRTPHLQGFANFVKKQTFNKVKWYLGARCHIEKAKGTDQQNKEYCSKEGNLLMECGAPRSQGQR
# Method: as §1
# [8] = test system: T8, Rep nickase domain of tomato yellow leaf curl virus
# T8 sequence (residues 1-136, tag not shown): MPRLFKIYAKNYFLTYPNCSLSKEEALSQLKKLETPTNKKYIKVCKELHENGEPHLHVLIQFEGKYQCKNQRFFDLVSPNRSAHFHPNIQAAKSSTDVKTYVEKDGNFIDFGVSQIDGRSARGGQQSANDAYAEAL
# Method: as §1
# [9] = test system: T9, Rep nickase domain of wheat dwarf virus
# T9 sequence (residues 1-137, tag not shown): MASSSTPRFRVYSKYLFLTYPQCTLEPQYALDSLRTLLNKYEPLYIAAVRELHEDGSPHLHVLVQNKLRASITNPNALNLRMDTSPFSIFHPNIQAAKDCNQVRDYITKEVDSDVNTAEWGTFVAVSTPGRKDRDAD
# Method: as §1
Sequence,uncleaved DNA left (log2) [1],uncleaved DNA left (log2) [2],uncleaved DNA left (log2) [3],uncleaved DNA left (log2) [4],uncleaved DNA left (log2) [5],uncleaved DNA left (log2) [6],uncleaved DNA left (log2) [7],uncleaved DNA left (log2) [8],uncleaved DNA left (log2) [9]
AGGCGAG,-0.0722,0.0734,-0.0579,0.331,-0.0214,-0.371,0.0271,0.0782,0.0298
GGGCTCT,0.174,0.139,0.803,1.79,0.119,2.17,0.223,0.188,0.182
TGGCTCT,-0.0552,0.0162,0.175,-0.652,-0.0619,0.364,-0.163,0.00167,0.0369
TGATGAT,-0.227,0.038,0.283,0.692,0.0399,1.59,-0.568,-0.0114,0.0389
ACTAAGA,-0.0017,-0.0185,-0.0825,-0.199,0.0878,-0.93,0.197,-0.0377,-0.0227
CTTCTAA,-0.0094,0.0454,-0.0621,-0.544,0.132,-0.553,0.0534,0.0759,0.144
TTTGAAC,-0.0536,-0.0674,0.13,-0.205,-0.00509,-0.479,-0.0421,-0.031,0.00426
TACTCGC,0.00297,-0.0871,-0.639,-0.995,-0.0302,-1.09,-0.439,0.0556,-0.025
CCGATTT,-0.184,-0.209,-0.237,-1.97,-0.112,-0.496,-0.709,-0.17,-0.362
GACCTAT,-0.107,-0.0779,0.0838,0.0716,-0.0568,0.83,-0.238,-0.106,0.101
ACAAAAC,-0.0541,0.0235,-0.132,-0.375,0.0703,-0.817,0.177,-0.057,0.0154
TGCACGC,-0.0884,-0.0428,-0.0823,-0.0597,-0.09,-0.296,-0.023,-0.0151,0.00624
TGCTAAA,-0.0945,-0.0802,-0.109,-0.167,-0.0768,-0.597,-0.176,-0.0444,-0.0633
AGACTGC,-0.0632,-0.0235,0.0236,0.638,-0.0367,1.22,0.129,-0.0999,0.156
TTAAAGG,0.00903,0.0676,0.531,1.37,-0.00229,1.55,0.055,-0.0821,-0.000699
TGAGCGG,-0.0148,0.056,0.228,1,-0.0864,1.26,0.217,-0.0939,0.0357
GCCCGTC,-0.0138,-0.0364,0.235,0.557,-0.0261,0.334,0.0787,0.0857,0.06
AGCTTAC,0.067,-0.041,-0.0983,-1,-0.0769,-0.179,-0.136,0.0414,-0.0312
GTATAAC,0.112,0.0374,0.242,0.6,0.111,1.58,0.0902,0.00967,0.153
GAAACGC,0.147,0.137,0.0683,0.0921,0.0271,-0.421,0.2,0.106,0.137

Sequence,uncleaved DNA left (log2) [1],uncleaved DNA left (log2) [2],uncleaved DNA left (log2) [3],uncleaved DNA left (log2) [4],uncleaved DNA left (log2) [5],uncleaved DNA left (log2) [6],uncleaved DNA left (log2) [7],uncleaved DNA left (log2) [8],uncleaved DNA left (log2) [9]
ACACGGA,0.0487,-0.0296,-0.26,-0.0315,-0.01,-0.66,0.0663,-0.0386,0.0175
CTACGTC,0.0351,-0.0215,0.0153,-0.867,-0.164,-0.756,-0.0354,-0.128,-0.0466
GTGACTT,0.0642,-0.0703,0.706,1.67,-8.54e-06,2.13,0.15,0.0326,0.178
CACGCGT,-0.0913,-0.181,-0.93,-1,-0.0389,-0.967,-0.0316,0.0372,-0.233
GCAGGTC,0.123,0.159,0.355,0.806,0.0606,0.502,0.24,0.215,0.0303
TCACACA,-0.16,-0.073,0.0332,-1.32,-0.114,-0.421,-0.175,0.0211,0.00672
GGAATCA,0.0906,0.146,0.639,1.4,-0.0416,1.96,0.199,0.176,0.237
TGGGTAA,-0.0174,0.058,0.663,1.4,0.0781,1.83,0.132,0.0717,0.149
GCGACCT,0.0637,-0.0544,0.0185,0.413,-0.0557,0.914,-0.0443,-0.0563,-0.0507
GACAGCA,0.0239,0.104,0.184,-0.0185,0.00384,0.00112,-0.0559,0.0819,0.114
AGCAGGG,0.0998,0.119,0.00248,0.323,0.174,0.249,0.221,0.183,0.154
CAATGCA,-0.202,0.0152,-1.16,-1.43,0.0501,-1.29,-0.565,0.135,-0.0986
ACCTTAC,0.00267,0.00624,-0.412,-2.08,0.111,-1.13,-0.0164,-0.0941,-0.00803
AGATACT,-3.51,-0.0673,-0.646,-2.59,0.0463,0.489,-3.48,0.123,-0.481
TCCGGAT,0.0186,-0.0124,0.353,1.42,-0.0237,1.77,0.0646,-0.158,-0.0379
GTAGGAA,0.24,0.0845,0.572,1.29,0.0812,1.84,0.2,0.138,0.219
GTAGAGT,0.12,0.0878,0.27,0.77,0.00875,1.17,0.086,0.113,0.137
AAACGTC,0.132,0.0527,-0.0159,-0.662,0.137,-0.867,0.0313,-0.0151,-0.027
CAAAAGG,0.0552,0.0134,0.165,0.598,0.0405,-0.232,0.108,-0.112,0.0106
AGGAAGA,0.0437,0.137,0.298,0.613,0.107,-0.0343,0.113,0.0124,0.155

Sequence,uncleaved DNA left (log2) [1],uncleaved DNA left (log2) [2],uncleaved DNA left (log2) [3],uncleaved DNA left (log2) [4],uncleaved DNA left (log2) [5],uncleaved DNA left (log2) [6],uncleaved DNA left (log2) [7],uncleaved DNA left (log2) [8],uncleaved DNA left (log2) [9]
TATCGGC,0.0599,-0.0655,0.0484,-0.0165,-0.101,-0.526,-0.0127,0.0322,-0.00936
AGCGGTT,-0.0996,-0.117,0.0545,0.284,-0.0446,1.24,-0.346,-0.0099,-0.0527
CAACTTT,-0.228,-0.19,-2.64,-3.1,-0.188,-1.41,-1.23,-0.0454,-0.985
ACATGTT,-3.55,-0.323,-1.46,-2.92,0.117,-1.04,-3.33,-0.0688,-0.4
GCGTAGC,-0.0184,-0.0809,0.0644,0.448,-0.09,0.26,-0.015,-0.0738,-0.0343
TGCGCGG,0.0501,0.0953,0.268,0.911,0.132,1.7,0.0685,-0.0555,0.0314
GGTGGAT,0.179,0.144,0.57,1.73,0.102,2.12,0.245,0.185,0.277
GACTTCC,0.158,-0.0643,0.702,1.24,0.0946,1.94,0.0758,0.0408,0.136
GTGTGTG,0.0591,-0.00414,-0.449,-0.374,-0.00228,-0.731,0.0285,-0.113,-0.0234
CTACTTG,-0.238,-0.221,-0.618,-1.78,-0.121,-1.01,-0.138,-0.121,-0.173
ATACCTG,-0.0997,-0.051,0.122,0.765,-0.00518,1.06,0.0734,-0.139,-0.0035
GGTTCCA,0.0801,0.169,0.376,0.965,-0.0517,1.78,0.16,0.173,0.18
ACGTTGG,0.125,-0.0234,-0.54,-0.608,0.15,-1.01,0.235,0.0684,-0.103
TTTGTGA,0.0777,-0.0445,-0.58,-0.672,0.000241,-1.11,0.0568,0.0319,-0.0664
GAGATGT,0.0349,0.0491,0.595,1.28,0.0551,1.67,-1.7,0.101,0.111
GCCCGCA,-0.0541,-0.0939,-0.134,0.00795,-0.0983,-0.415,-0.121,-0.127,-0.171
TCACCTT,0.0514,-0.0443,-0.15,-2.68,-0.0709,-0.395,-0.616,-0.199,-0.138
GATGTCA,0.142,0.14,0.36,0.518,-0.033,1.14,0.109,0.142,0.213
CTTTCTA,-0.119,-0.0354,-0.117,-1.56,-0.11,-0.62,-0.292,0.0295,0.0218
TCAGGCC,-0.0723,-0.00536,0.111,0.451,-0.0657,0.118,-0.0763,-0.11,0.0114
